Source: PubChem BioAssay AID1030 (National Center for Advancing Translational Sciences (NCATS), 2008)
Out of some 220,000 compounds screened, about 16,000 (7.3%) were called active. This list was built around the results that the source calls inconclusive (neither active nor inactive); the mix of calls is not that of the screen. Calls follow the shape of the dose curve; as a rule, active = well fitted inhibition curve with a large enough effect (not every such curve was filed as active); inconclusive = small, poorly fitted or top-dose-only effect, or another doubt; inactive = no such curve, though single readings can be large or run the other way. Potencies of inconclusive entries are left out as doubtful fits.

These molecules were tested against Aldehyde dehydrogenase 1A1 (Homo sapiens) (UniProt P00352) (assay: qHTS Assay for Inhibitors of Aldehyde Dehydrogenase 1 (ALDH1A1)). Conditions: Purified ALDH1A1, NADH fluorescence, propionaldehyde substrate; series mostly up to 75.3 µM; activity, negative = inhibition: at the top concentration.
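For activity, negative = inhibition in this document: plate controls were no enzyme wells and a reference inhibitor.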
Potency is read from the fitted curve at half-maximal effect; tags tell the direction and shape of the fitted curve.

Chain of UniProt P00352 (P00352 whole entry, looked up): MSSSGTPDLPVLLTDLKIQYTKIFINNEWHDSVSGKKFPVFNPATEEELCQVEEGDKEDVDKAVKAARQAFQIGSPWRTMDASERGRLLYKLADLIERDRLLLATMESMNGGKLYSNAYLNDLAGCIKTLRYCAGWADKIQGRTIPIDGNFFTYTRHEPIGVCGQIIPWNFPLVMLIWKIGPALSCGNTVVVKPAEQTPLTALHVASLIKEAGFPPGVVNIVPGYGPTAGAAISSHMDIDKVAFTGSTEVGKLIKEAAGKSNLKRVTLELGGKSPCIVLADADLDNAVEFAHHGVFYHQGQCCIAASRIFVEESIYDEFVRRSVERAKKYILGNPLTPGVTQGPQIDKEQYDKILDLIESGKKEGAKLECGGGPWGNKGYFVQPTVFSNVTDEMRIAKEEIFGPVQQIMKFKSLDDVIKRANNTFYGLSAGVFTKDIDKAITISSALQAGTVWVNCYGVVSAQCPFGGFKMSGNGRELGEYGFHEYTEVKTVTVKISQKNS

SMILES	Potency	activity, negative = inhibition
O=C(N/N=C/C=C/c1ccccc1[N+](=O)[O-])c1cc(-c2ccccc2)n[nH]1	inconclusive [inhibitor, full curve]	–
O=C1c2ccccc2CN1CCNC(=S)NC1CCCCC1	–	inactive: 4.93%
c1ccc(-c2ncc(CSc3nncn3-c3ccccc3)s2)cc1	inconclusive [inhibitor, partial curve]	–
CCCCOC(=O)C1=C(C)Nc2nnnn2C1c1ccccc1Cl (stereo not given)	active: 0.447 µM	–
COC(=O)c1c(NC(=O)CN2CCCc3ccccc32)sc(C)c1C	active: 20 µM	–
C=C[C@](C)(O)CCC1C(=C)CC(O)C2C(C)(C)CCCC12C (stereo not given in full)	–	inactive: -3.76%
CCOC(=O)COc1ccccc1C1Nc2ccccc2C(=O)N1c1cccc(Cl)c1 (stereo not given)	inconclusive [inhibitor, partial curve]	–
CN1CCN(S(=O)(=O)c2ccc(NC(=S)NC(=O)C(C)(C)C)cc2)CC1	active: 31.6 µM	–
CN(C)c1ccc(C2NCC(CCl)O2)cc1 (stereo not given)	active: 1.41 µM	–
Cc1ccc(OCC(=O)NN2C(=O)c3ccccc3C2=O)cc1	–	inactive: 2.86%
CCOC(=O)NCc1ccc(S(=O)(=O)Nc2ccccc2C)cc1	–	inactive: 5.22%
CCN1C2=C(C(=O)CCC2)C(c2ccc(O)c(Br)c2)C2=C1CCCC2=O	inconclusive [inhibitor, single point]	–
CCOC(=O)C(NC(=O)c1cccnc1)(Nc1cccc(C)n1)C(F)(F)F (stereo not given)	–	inactive: 1.68%
CC(C(=O)NCC1CCCCC1)N1CCN(S(=O)(=O)c2ccccc2F)CC1 (stereo not given)	active: 15.8 µM	–
CSc1ccc2c(c1)C(N1CCN(C)CC1)Cc1ccccc1S2 (stereo not given)	inconclusive [inhibitor, single point]	–
CC(C)CC(c1nnnn1C1CCCCC1)N1CCN(c2ncccn2)CC1 (stereo not given)	inconclusive [inhibitor, single point]	–
CCCCN1C(=O)/C(=C/C=C2/CC(C)(C)CN2C)SC1=S	active: 6.31 µM	–
O=C(Nc1ccc(OC(F)F)c(Cl)c1)Nc1ccc2c(c1)OCO2	–	inactive: -0.447%
S=c1[nH]nc(-c2cc(-c3ccccc3)n[nH]2)n1/N=C/c1c(Cl)cccc1Cl	–	inactive: 5.49%
CCCCc1cc(=O)oc2cc(OCc3nn[nH]n3)c(Cl)cc12	inconclusive [inhibitor, single point]	–
O=C(CSc1nnc(CNC(=O)c2cccs2)o1)Nc1ccc2c(c1)OCO2	inconclusive [inhibitor, single point]	–
Cc1ccc(C2=NN3C(C(=O)c4ccccc4)Oc4ccccc4C3C2)cc1 (stereo not given)	inconclusive [inhibitor, single point]	–
NS(=O)(=O)c1ccc(CCNC(=O)c2ccc(Cl)cc2[N+](=O)[O-])cc1	–	inactive: 5.47%
Cc1sc(NC(=O)c2ccccc2)c(C(c2ccccn2)N2CCN(CCO)CC2)c1C (stereo not given)	–	inactive: 16.6%
CCOC(=O)c1c(NC(=O)c2ccoc2C)sc(C)c1C	inconclusive [inhibitor, single point]	–

SMILES	Potency	activity, negative = inhibition
Fc1ccc(-c2ccnc3nc(N4CCOCC4)nn23)cc1	inconclusive [inhibitor, single point]	–
CN1CC(c2ccccc2)C2(COc3ccccc3C2=O)C12C(=O)Nc1ccccc12 (stereo not given)	active: 7.94 µM	–
CCN(C(=O)COC(=O)CNC(=O)c1ccc(C)c(C)c1)C1CCS(=O)(=O)C1 (stereo not given)	active: 25.1 µM	–
Cc1ccc(C(=O)CSC2=C(C#N)C(c3ccco3)C3=C(CCCC3=O)N2)cc1 (stereo not given)	inconclusive [inhibitor, partial curve]	–
Cc1ccc(C(=O)NCc2ccc3c(c2)OCO3)cc1S(=O)(=O)N1CCCCC1	inconclusive [inhibitor, partial curve]	–
O=C(CSc1ncccn1)N/N=C/c1cccc(OC2CSC2)c1	inconclusive [inhibitor, partial curve]	–
O=C(O)CCC(=O)Nc1ccc(-c2nnc(-c3ccco3)o2)cc1	inconclusive [inhibitor, partial curve]	–
S=c1[nH]nc(-c2ccccc2)c2ccccc12	active: 8.91 µM	–
CCOC(=O)C1(Cc2ccccc2)CCCN(C2CCCC2)C1 (stereo not given)	–	inactive: 6.24%
COc1cc2c(cc1OC)CN(C(=O)CSc1n[nH]c(N)n1)CC2	inconclusive [inhibitor, single point]	–
Cc1c(C(=O)OC2CCCC2)[nH]c2c1C(=O)CC(c1ccco1)C2 (stereo not given)	active: 11.2 µM	–
CCC(=O)N1CCc2cc(S(=O)(=O)CCC(=O)Nc3ccc(C)c(F)c3)ccc21	–	inactive: 3.3%
COc1ccc(NS(=O)(=O)c2ccc(Oc3cccc(C(=O)O)c3)cc2)cc1	active: 0.708 µM	–
COc1ccc(C2(C(=O)Nc3nncs3)CCCC2)cc1	–	inactive: -2.21%
CCOc1ccc(C(O)c2nccn2Cc2ccccc2)cc1 (stereo not given)	–	inactive: -0.0153%
COc1cc([N+](=O)[O-])ccc1NC(=S)NC(=O)CC(C)(C)C	inconclusive [inhibitor, full curve]	–
COc1ccc(Cc2nnc(NC(=O)CSc3ccc(C)cc3)s2)cc1OC	inconclusive [inhibitor, single point]	–
O=C(N/N=C(\CC(=O)c1cccs1)C(F)(F)F)c1cccnc1	active: 20 µM	–
COc1ccc(S(=O)(=O)N2CCC(C(=O)Nc3c(F)cccc3F)CC2)cc1	inconclusive [inhibitor, single point]	–
CCOc1ccc(S(=O)(=O)N/N=C(\C)C2CCCCC2)cc1	active: 1.78 µM	–
C/C(=N/NC(=O)CSc1nc2ccccc2n1C)c1ccc(O)cc1	active: 12.6 µM	–
CCOc1c2ccc(C(=O)NCc3ccc(C)cc3)cc2nn1CC	inconclusive [inhibitor, partial curve]	–
Cc1sc(NC(=O)c2ccco2)c(C(c2cccnc2)N2CCCC2)c1C (stereo not given)	–	inactive: 15.4%
Cc1ccc(N(CCCCN2C(=O)c3ccccc3C2=O)C(=O)c2cccs2)cc1	inconclusive [inhibitor, partial curve]	–
C=CCn1c(COc2ccccc2F)nnc1SCC(=O)NC(=O)NCc1ccco1	inconclusive [inhibitor, single point]	–
